Out of some 360,000 compounds screened, about 6,000 (1.7%) were called active. Inconclusive means that the source gave no clear call. Such entries were picked first, then a sample of the others. The call rests on the fitted dose curve; in most records, active means well fitted cell-killing curve with a large enough effect; inconclusive means small, poorly fitted or top-dose-only effect, or effect the other way; inactive means flat fitted curve, though single readings scatter. Potencies of inconclusive entries are left out as doubtful fits.
Test: qHTS for induction of synthetic lethality in tumor cells producing 2HG: qHTS for the HT-1080-NT fibrosarcoma cell line;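 further: NT is the 2HG producing partner of a matched IDH1 knockdown line; nearly all actives have a fitted effect of over 55% in size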;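 on activity, negative = less viability: 0% = DMSO-treated cells and -100% = media-only wells without cells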
Conditions: HT-1080-NT fibrosarcoma viability, CellTiter-Glo ATP luminescence, 48 h; activity, negative = less viability: at 46.1 µM (top of the series) unless noted
Procedure, shortened: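 Luminescent CellTiter-Glo readout after 48 hours of compound exposure at 37 degrees C defined viability of HT-1080-NT cells. Activity was normalized to DMSO wells and cell-free media wells; concentration-response curves were fitted and assigned curve classes.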
Potency means the concentration at half of the fitted maximal effect; tags describe the fitted curve by direction and shape.

Structure (SMILES) | Potency | activity, negative = less viability
CCCCN(C)c1nc(-c2ccco2)c2c(c1C#N)CC(C)(C)OC2 | inconclusive [cytotoxic, single point] | –
CC1CC(C)CN(C(=O)C(C)N2CCN(S(=O)(=O)c3cccs3)CC2)C1 (centres undefined) | – | inactive: 0.0017%
COc1cccc(/C=N/Nc2cc(N3CCOCC3)ncn2)c1O | inconclusive [cytotoxic, partial curve, poor fit] | –
CCCCN(CCCC)CCn1cnc2c([nH]c3ccc(OC)cc32)c1=O | – | inactive: -0.325%
N#Cc1c2ccc(O)cc2n2ccccc12 | – | inactive: -23%
O=C(NCc1cccnc1)c1cccc(C(F)(F)F)c1 | inconclusive [cytotoxic, partial curve, poor fit] | –
Cc1cccc(N2C(=O)CC(Sc3nc(C)c4c(n3)CCCC4)C2=O)c1 (centres undefined) | active: 7.08 µM | –
CC(C)c1ccc(CC(C)C2C3=C(CCCC3=O)OC3=C2C(=O)CCC3)cc1 (centres undefined) | inconclusive [cytotoxic, single point] | –
Oc1ccccc1Nc1nc(NCc2ccccc2)c2ccccc2n1 | inconclusive [cytotoxic, single point] | –
CC(C)(C)c1ccc(OCCNC(=S)Nc2ccccc2)cc1 | inconclusive [cytotoxic, single point] | –
COc1ccc(-n2ncc3c2CC(C)(C)CC3NC(=O)CCCN2CCCC2=O)cc1 (centres undefined) | inconclusive [rising, partial curve] | –
Cc1cc(/C=C(\C#N)C(=O)NC2CCCCCC2)c(C)[nH]1 | – | inactive: -8.47%
Cc1cc([N+](=O)[O-])cc(/C=N\NC(=O)C2COc3ccccc3O2)c1O (centres undefined) | inconclusive [cytotoxic, single point] | –
CCN(CC)S(=O)(=O)c1ccc(NC(=O)c2cc(-c3cccs3)nc3ccccc23)cc1 | inconclusive [cytotoxic, single point] | –
CCCCCNC1=CC(=O)CC(c2ccccc2)C1 (centres undefined) | inconclusive [cytotoxic, single point] | –
O=C(Cn1c(C(F)(F)F)nc2ccccc21)Nc1ccccc1C(=O)O | – | inactive: -15%
C/C(CC(=O)NC1CCCC1)=N\NC(=O)Cc1csc(N)n1 | – | inactive: 4.45%
CC(C)CCn1c(N2CCCC2)nc2c1c(=O)n(C)c(=O)n2C | – | inactive: -3.06%
Cc1ccc(/C=N/NC(=O)c2cc(-c3ccc(C)o3)[nH]n2)cc1 | inconclusive [cytotoxic, partial curve, poor fit] | –
Cc1cc2ccccn2c1C(=O)c1ccccc1F | active: 14.6 µM | –
O=S1(=O)[C@H]2C[C@@H]3C=C[C@@]2(CN1Cc1cccc(F)c1)O3 | – | inactive: 15.2%
COC(=O)C1(CC2CC(c3ccc(Cl)cc3)=NO2)CCN(C(=O)OC(C)(C)C)CC1 (centres undefined) | – | inactive: 0.875%
Cc1ccc(OCC(O)Cn2c3ccccc3c3ccccc32)cc1 (centres undefined) | inconclusive [cytotoxic, single point] | –
CC(C)(C)c1ccc(S(=O)(=O)NCC(=O)Nc2ccc(-c3nc4ccccc4s3)cc2)cc1 | inconclusive [cytotoxic, single point] | –
Cc1ccc(OCc2nnc(SCC(=O)NC3CCCCC3)n2C)cc1 | – | inconclusive: 32.1%

Structure (SMILES) | Potency | activity, negative = less viability
CCOc1cc(C(=O)Nc2cccc3ncccc23)cc(OCC)c1OCC | – | inactive: 6.34% [at 9.24 µM]
O=C(Nc1ccc(N2CCOCC2)c(Cl)c1)c1ccc([N+](=O)[O-])o1 | active: 6.51 µM | –
COc1cc(/C=C2\SC(=Nc3ccccc3OC)NC2=O)ccc1O | active: 4.11 µM | –
O=C1/C(=C\c2ccc(Br)cc2)SC(=S)N1NS(=O)(=O)c1ccccc1 | inconclusive [cytotoxic, single point] | –
COc1cc(S(=O)(=O)n2c(C)nc3ccccc32)ccc1F | inconclusive [cytotoxic, single point] | –
CC(C)(C)c1ccc(Cn2nnc3c(=O)[nH]c(C4CCN(C(=O)c5ccco5)CC4)nc32)cc1 | inconclusive [cytotoxic, single point] | –
CC(C)(C)SC(=O)CC1NS(=O)(=O)OC2CCCCC12 (centres undefined) | inconclusive [rising, single point] | –
C/C(=N\Nc1cc(-c2ccccc2)nc(-c2ccc(Br)cc2)n1)c1cccc(N)c1 | active: 11.2 µM | –
COc1ccc(C(NC(C)=O)c2cc(Cl)c3cccnc3c2O)cc1 (centres undefined) | inconclusive [cytotoxic, single point] | –
COc1cc2c(cc1OC)C(c1ccc(-c3ccc(Cl)c(Cl)c3)o1)=NCC2 | inconclusive [cytotoxic, single point] | –
Nc1ccc(CNC(=O)c2cc3cc(Cl)ccc3nc2N)cc1 | inconclusive [cytotoxic, single point] | –
O=C(N/N=C/c1cc([N+](=O)[O-])ccc1O)c1cccc(N2CCCC2=O)c1 | inconclusive [cytotoxic, partial curve] | –
N#C/C(=C\c1ccc(N2CCCC2)c([N+](=O)[O-])c1)c1nc2ccccc2[nH]1 | – | inactive: 13.4%
N#Cc1ccc(OCC(=O)NCCc2ccc(S(N)(=O)=O)cc2)cc1 | – | inactive: 5.79%
CC(C)c1ccc(/C=N/NC(=O)c2ccccc2Cl)cc1 | active: 7.31 µM | –
CCOC(=O)C1=CNS(=O)(=O)NC1c1ccccc1 (centres undefined) | – | inactive: 2.87%
Cc1ccc(C)c(C(=O)OCC(=O)Nc2cccc(S(=O)(=O)N3CCCCC3)c2)c1 | inconclusive [cytotoxic, single point] | –
CCOC(=O)[C@]12CCC=C1N(Cc1cccc3ccccc13)C(=O)[C@H](CC(=O)NCC13CC4CC(CC(C4)C1)C3)C2 | – | inactive: -22.5%
CCN1CCN(Cc2c3ccccc3cc3ccccc23)CC1 | – | inactive: -14.9%
COc1ccc(Cc2cc(NCc3ccccc3)c3ncn(C(C)C)c3c2)cc1 | inconclusive [cytotoxic, single point] | –
O=C(O)CC(Cc1ccc(Cl)cc1)C(=O)Nc1cc(Cl)ccc1Cl (centres undefined) | – | inactive: -1.17%
COc1ccc(C(O)P(=O)(OCCC(C)C)c2ccc(N(C)C)cc2)cc1 (centres undefined) | – | inactive: -6.19%
COc1ccc(CC(=O)NCc2ccccc2)cc1 | inconclusive [cytotoxic, full curve] | –
CCOC(=O)C1(Cc2ccc(Cl)cc2)CCN(C(=O)CCc2ccncc2)CC1 | – | inactive: -3.98%
COc1ccccc1-c1ccc(/C=N/O)o1 | inconclusive [rising, full curve, poor fit] | –

Structure (SMILES) | Potency | activity, negative = less viability
OC[C@H]1O[C@@H](Oc2ccc(O)cc2)[C@H](O)[C@@H](O)[C@@H]1O | inconclusive [rising, full curve] | –
O=c1cc(-c2ccccc2Cl)oc2c(NS(=O)(=O)c3ccccc3OC(F)(F)F)ccc(O)c12 | inconclusive [cytotoxic, single point] | –
CNCCCC1Sc2ccccc2Oc2ccccc21 (centres undefined) | inconclusive [cytotoxic, single point] | –
CCOC(=O)c1sc(NC(=O)Nc2cccc(Cl)c2)cc1C | inconclusive [cytotoxic, single point] | –
Cc1ccc(C(=O)COC(=O)CN2C(=O)C3C4CC(C(Br)C4Br)C3C2=O)cc1 (centres undefined) | – | inconclusive: 31.2%
CC(C)(C)[C@@H]1CCC(=O)N(CC[C@H](Sc2ccc(Br)cc2)c2ccccc2)CC1 | inconclusive [cytotoxic, single point] | –
c1ccc2[nH]c(CN3CCN(c4ncnc5c4oc4ccccc45)CC3)nc2c1 | inconclusive [cytotoxic, partial curve] | –
CCC(=NCCc1c(C)[nH]c2ccccc12)C1=C(O)CC(c2ccccc2)CC1=O (centres undefined) | inconclusive [cytotoxic, partial curve] | –
Cc1[nH]n(-c2cccc(Cl)c2)c(=O)c1/C=N/n1c(C)nc2ccccc2c1=O | inconclusive [cytotoxic, single point] | –
O=C(O)CCCC(=O)Nc1c(F)c(F)c(F)c(F)c1F | inconclusive [rising, partial curve, poor fit] | –
COc1ccc(C)cc1N=Nc1ccc(O)c2ncccc12 | inconclusive [cytotoxic, partial curve] | –
Cc1ccc(OCc2nnc(N)s2)cc1C | – | inactive: 7.63%
COc1cccc(C(=O)CSc2nnc(CNS(C)(=O)=O)n2-c2ccc(C)cc2)c1 | – | inactive: -0.807%
COc1ccc2sc(NC(=O)CC(C)C)nc2c1 | – | inactive: 1.61%
COc1cccc(C(=O)Nc2ccc3c(c2)C(=O)NC3=O)c1 | inconclusive [rising, partial curve] | –
Nc1c2c(nc3ccc(Br)cc13)N(c1ccccc1)CC2 | inconclusive [cytotoxic, single point] | –
O=Nc1ccc(O)c2ncccc12 | active: 11.6 µM | –
N#C/C(=C\c1ccccc1)C(=O)N(c1ccccn1)C1CCCCC1 | inconclusive [cytotoxic, single point] | –
CCCc1nc2ccccc2c(C(=O)OCC(=O)NC2CC2)c1CC | – | inactive: -4.21%
Cc1ccc(S(=O)(=O)N(Cc2ccc(Cl)cc2)c2ccccc2C(=O)NCc2cccnc2)cc1 | inconclusive [cytotoxic, single point] | –
COc1ccc(NC(=O)CCN2CCCCCC2)c(OC)c1 | – | inactive: 3.89%
O=C(NC(=S)Nc1ccccc1)c1cncc(C#Cc2ccccc2)c1 | – | inactive: -5.44%
CC(=O)N1CCc2c(sc(NC(=O)c3ccc([N+](=O)[O-])o3)c2C#N)C1 | active: 1.84 µM | –
Oc1cccc(Nc2nc(O)c(/C=C3\C=Nc4ccccc43)s2)c1 | inconclusive [cytotoxic, single point] | –

Reference: PubChem BioAssay AID686970 (National Center for Advancing Translational Sciences (NCATS), 2013)
